The supplement of paper PMC8728848
Some of the results follow.

How the values were obtained:
Experiment in all cases: glycan array binding signal (z-score within array); higher = stronger binding
Conditions in all cases: glycan notation: IUPAC condensed, linker removed
[1] = biological target: Neu5Gc(a2-8)Neu5Gc(a2-3)Gal(b1-4)GlcNAc(b1-3)Gal(b1-4)GlcNAc
Method in brief: (§1)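 Negative Z-scores can be read as non-binding. The Z-score is calculated within each array and then averaged across arrays of one protein sequence at different concentrations or buffers and across linkers. Arrays, 3228 in all, were curated from the Consortium for Functional Glycomics database and kept only where the protein sequence was available.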

[2] = biological target: Neu5Gc(a2-8)Neu5Gc(a2-6)Gal(b1-4)GlcNAc
Method in brief: as §1

[3] = biological target: Neu5Gc(b2-6)Gal(b1-4)GlcNAc
Method in brief: as §1

B1: Clec2 (Mus musculus), Q9JL99 (protein)
chain: MQDEDGYITLNIKPRKQALSSAEPASSWWRVMALVLLISSMGLVVGLVALGIMSVTQQKYLLAEKENLSATLQQLAKKFCQELIRQSEIKTKSTFEHKCSPCATKWRYHGDSCYGFFRRNLTWEESKQYCTEQNATLVKTASQSTLDYIAERITSVRWIGLSRQNSKKDWMWEDSSVLRKNGINLSGNTEENMNCAYLHNGKIHPASCKERHYLICERNAGMTRVDQLL
- glycan array binding signal (z-score) [1]: -0.34
- glycan array binding signal (z-score) [2]: -0.121
- glycan array binding signal (z-score) [3]: 0.19
